# Reference: the supplement of paper PMC10037445
# Where “and” joins values, the source holds several entries; their conditions need not be identical. Equal entries are not always repeated. Over roughly 2,900 compounds, “NF-kB SEAP reporter activity, fold change vs agonist alone” has its median near 0.99; the highest 2% begin near 2.6. The list shows a part of the results.
# Assays:
# RAW-Dual [1] = assay: NF-kB SEAP reporter activity, fold change vs agonist alone; higher = enhanced NF-kB activity; details: library stock concentration (final ~1000-fold dilution): 10 mM
# Procedure, shortened: (§1)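 After 50 nL of library stock was delivered by pin tool to RAW-Dual macrophages (50,000 cells/well, DMEM, 384-well plates), a PRR agonist was added 1 h later and the plates were kept at 37 °C, 5% CO2. Twenty hours later, IRF was read from supernatant by QuantiLuc luminescence and NF-κB by QuantiBlue absorbance at 620 nm. Reporter activity is stated as fold change over agonist-alone wells. Wells with IncuCyte confluency under 70% of agonist controls in both mask sets were counted as cytotoxic.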
# RAW-Dual [2] = assay: NF-kB SEAP reporter activity, fold change vs agonist alone; cytotoxicity flag (confluency mask): not cytotoxic; higher = enhanced NF-kB activity
# Procedure, shortened: as §1
# RAW-Dual [3] = assay: NF-kB SEAP reporter activity, fold change vs agonist alone; cytotoxicity flag (confluency mask): cytotoxic (confluency <70% of control); higher = enhanced NF-kB activity
# Procedure, shortened: as §1
# [4] = cytotoxicity flag (confluency mask): not cytotoxic, agonist: Imiquimod (TLR7) […]
# [5] = cytotoxicity flag (confluency mask): not cytotoxic, agonist: MPLA (TLR4) […]
# [6] = agonist: ODN 1826 (TLR9) 0.5 ug/mL
# [7] = agonist: Pam2CSK4 (TLR2/6) 0.1 ug/mL
# [8] = agonist: Pam3CSK4 (TLR2/1) 0.1 ug/mL
# [9] = cytotoxicity flag (confluency mask): cytotoxic (confluency <70% of control), agonist: Imiquimod (TLR7) […]
# [10] = cytotoxicity flag (confluency mask): cytotoxic (confluency <70% of control), agonist: MPLA (TLR4) […]
smiles,measurement,setting,value
CC1(N)CCN(c2cnc(-c3cccc(Cl)c3Cl)c(N)n2)CC1.Cl,NF-kB SEAP reporter activity,RAW-Dual [1]; [4],1.11
same,NF-kB SEAP reporter activity,RAW-Dual [1]; [5],1.18
CC1(N)CCN(c2cnc(-c3cccc(Cl)c3Cl)c(N)n2)CC1.Cl (library stock concentration (final ~1000-fold dilution): 10 mM),NF-kB SEAP reporter activity,RAW-Dual [2]; agonist: LPS (TLR4) 0.1 ug/mL,1.2
same,NF-kB SEAP reporter activity,RAW-Dual [2]; [6],0.647
same,NF-kB SEAP reporter activity,RAW-Dual [2]; [7],0.778
same,NF-kB SEAP reporter activity,RAW-Dual [2]; [8],0.701
CC(C)(C)NCC(O)COc1cccc2c1CC(O)C(O)C2 (stereo not drawn) (library stock concentration (final ~1000-fold dilution): 10 mM),NF-kB SEAP reporter activity,RAW-Dual [2]; agonist: LPS (TLR4) 0.1 ug/mL,1.07
same,NF-kB SEAP reporter activity,RAW-Dual [2]; [6],0.934
same,NF-kB SEAP reporter activity,RAW-Dual [2]; [7],1.09
same,NF-kB SEAP reporter activity,RAW-Dual [2]; [8],1.12
CC(C)(C)NCC(O)COc1cccc2c1CC(O)C(O)C2 (stereo not drawn),NF-kB SEAP reporter activity,RAW-Dual [1]; [5],1.13
Cc1ccc(S(=O)(=O)/C=C/C#N)cc1 (library stock concentration (final ~1000-fold dilution): 10 mM),NF-kB SEAP reporter activity,RAW-Dual [3]; agonist: LPS (TLR4) 0.1 ug/mL,0.353 and 0.3
same,NF-kB SEAP reporter activity,RAW-Dual [3]; [6],0.186 and 0.207
same,NF-kB SEAP reporter activity,RAW-Dual [3]; [7],0.0881 and 0.0849
same,NF-kB SEAP reporter activity,RAW-Dual [3]; [8],0.148 and 0.193
COc1cc(-c2cc(-c3ccc(N4CCNCC4)cc3)cnc2C)cc(OC)c1OC,NF-kB SEAP reporter activity,RAW-Dual [1]; [4],1.28
same,NF-kB SEAP reporter activity,RAW-Dual [1]; [5],1.94
COc1cc(-c2cc(-c3ccc(N4CCNCC4)cc3)cnc2C)cc(OC)c1OC (library stock concentration (final ~1000-fold dilution): 10 mM),NF-kB SEAP reporter activity,RAW-Dual [2]; agonist: LPS (TLR4) 0.1 ug/mL,3.37
same,NF-kB SEAP reporter activity,RAW-Dual [2]; [6],0.202
same,NF-kB SEAP reporter activity,RAW-Dual [2]; [7],1.29
same,NF-kB SEAP reporter activity,RAW-Dual [2]; [8],1.57
Nc1ccccc1NC(=O)c1ccc(CNc2nccc(-c3cccnc3)n2)cc1 (library stock concentration (final ~1000-fold dilution): 10 mM),NF-kB SEAP reporter activity,RAW-Dual [3]; agonist: LPS (TLR4) 0.1 ug/mL,5.7
same,NF-kB SEAP reporter activity,RAW-Dual [3]; [6],3.2
Nc1ccccc1NC(=O)c1ccc(CNc2nccc(-c3cccnc3)n2)cc1,NF-kB SEAP reporter activity,RAW-Dual [1]; [9],2.7
same,NF-kB SEAP reporter activity,RAW-Dual [1]; [10],2.58
Cn1sc(=O)n(Cc2ccccc2)c1=O (library stock concentration (final ~1000-fold dilution): 10 mM),NF-kB SEAP reporter activity,RAW-Dual [3]; agonist: LPS (TLR4) 0.1 ug/mL,0.399
same,NF-kB SEAP reporter activity,RAW-Dual [3]; [6],0.411
same,NF-kB SEAP reporter activity,RAW-Dual [3]; [7],0.138
same,NF-kB SEAP reporter activity,RAW-Dual [3]; [8],0.532
Cn1sc(=O)n(Cc2ccccc2)c1=O,NF-kB SEAP reporter activity,RAW-Dual [1]; [9],1.28
same,NF-kB SEAP reporter activity,RAW-Dual [1]; [10],0.662
CC(Nc1ncnc2[nH]cnc12)c1cc2ccc(F)cc2nc1-c1ccccn1 (stereo not drawn),NF-kB SEAP reporter activity,RAW-Dual [1]; [4],1.06
same,NF-kB SEAP reporter activity,RAW-Dual [1]; [5],1.08
CC(Nc1ncnc2[nH]cnc12)c1cc2ccc(F)cc2nc1-c1ccccn1 (stereo not drawn) (library stock concentration (final ~1000-fold dilution): 10 mM),NF-kB SEAP reporter activity,RAW-Dual [2]; agonist: LPS (TLR4) 0.1 ug/mL,1.19
same,NF-kB SEAP reporter activity,RAW-Dual [2]; [6],1.52
same,NF-kB SEAP reporter activity,RAW-Dual [2]; [7],1.24
same,NF-kB SEAP reporter activity,RAW-Dual [2]; [8],0.92
CC(C)(CO)n1cc(C(=O)c2cncc(NC(=O)Cc3ccc(Cl)cn3)c2)c2cnc(N)nc21,NF-kB SEAP reporter activity,RAW-Dual [1]; [4],1.05
same,NF-kB SEAP reporter activity,RAW-Dual [1]; [5],1.09
CC(C)(CO)n1cc(C(=O)c2cncc(NC(=O)Cc3ccc(Cl)cn3)c2)c2cnc(N)nc21 (library stock concentration (final ~1000-fold dilution): 10 mM),NF-kB SEAP reporter activity,RAW-Dual [2]; agonist: LPS (TLR4) 0.1 ug/mL,1.52
same,NF-kB SEAP reporter activity,RAW-Dual [2]; [6],1.09
same,NF-kB SEAP reporter activity,RAW-Dual [2]; [7],0.945
same,NF-kB SEAP reporter activity,RAW-Dual [2]; [8],1.41
